Experimental data published in PubChem BioAssay AID1865 (National Center for Advancing Translational Sciences (NCATS), 2009).
The whole screen tested about 280,000 compounds, of which about 540 (0.19%) were called active. The shares of active, inactive and inconclusive entries below differ from those in the screen. Calls come from the whole dose curve; as a rule, active = well fitted activation curve with a large enough effect; inconclusive = small, poorly fitted or top-dose-only effect; inactive = flat fitted curve, though single readings scatter. Potencies of inconclusive entries are doubtful fits and often do not repeat.

Test: Quantitative High-Throughput Screen for Regulators of Epigenetic Control; note: nearly all actives have a fitted effect of over 60% in size
Details: murine LDR cells, GFP reporter derepression, 30 h; series mostly up to 53.9 µM
Method in brief: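 In this reporter-derepression format, murine cells bearing a silenced integrated CMV-GFP locus incubate with test compound (30 h, 37 C), then are washed and imaged; fluorescent objects of 20–120 um count as induced cells.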
Potency is the fitted concentration of half-maximal effect; tags give direction and shape of the fitted curve.

Structure (SMILES) | Potency
O=C(NC1CC(=O)N(c2ccc(F)cc2)C1)c1ccc2c(c1)OCO2 (stereo not given) | inactive
Cc1cc(C(=O)C(=O)Nc2nncs2)c(C)n1-c1ccc(Cl)cc1 | inconclusive: 5.01 µM [activator, full curve]
O=C1Nc2ccc(Br)cc2C12NNc1ccccc1O2 (stereo not given) | active: 17.8 µM
CCN(c1ccccc1)S(=O)(=O)c1ccc(Cl)c(NC(=O)CSc2ncn[nH]2)c1 | inactive
O=C1C(=Cc2cccn2-c2ccc(O)cc2)C(=O)c2ccccc21 | active: 22.4 µM
O=c1c2sc3ccccc3c2n(Cc2ccc(F)cc2Cl)c(=O)n1Cc1ccccc1 | inactive
CC(C)COCc1ccc(O)c2ncccc12 | inconclusive: 5.62 µM [activator, full curve]
COc1ccc(/C=C2\CC/C(=C\c3ccc(OC)cc3OC)C2=O)c(OC)c1 | inconclusive: 35.5 µM [activator, single point]
CSc1ccc(/C=C/C(=O)c2ccc(NC(=O)C(C)C)cc2)cc1 | inconclusive: 20 µM [activator, single point]
COC(=O)Cc1c(O)ccn(CCc2c[nH]c3ccccc23)c1=O | inconclusive: 31.6 µM [activator, single point]
CC(=C/C(=O)O)/C=C/c1ccco1 | inconclusive: 22.4 µM [activator, single point]
CCOc1ccc(CNCc2c(C(=O)O)n(Cc3ccccc3C)c3cc(OC)ccc23)cc1OC | inconclusive: 0.447 µM [activator, full curve]
Cc1ccc(Cl)cc1Nc1nn2c(=O)c3ccc(C(=O)NC(C)c4ccccc4)cc3nc2s1 (stereo not given) | inactive
COc1cc(NC(=O)C2Cc3ccccc3N2C(=O)c2ccccc2)cc(OC)c1 (stereo not given) | inactive
COc1ccc(OCCn2nnc3sc4c(c3c2=O)CCCC4)cc1 | inconclusive: 12.6 µM [activator, single point]
CC1(C)Cc2c(sc3[nH]c(=S)n(Cc4ccco4)c(=O)c23)CO1 | inconclusive: 25.1 µM [activator, single point]
CCOc1cccc(CNc2ccc(O)cc2)c1OCc1ccc(Cl)cc1 | inconclusive: 35.5 µM [activator, single point]
O=C(C[n+]1ccccc1)Nc1c(Cl)cc(Cl)cc1Cl | inconclusive: 25.1 µM [activator, single point]
CCOc1ccc(Cn2c3ccc(OC)cc3c3nc4ccccc4nc32)cc1 | inactive
CC(C)CCNC(=O)C1CCN(C(=O)c2cc3sccc3n2Cc2ccc(Cl)cc2)CC1 | inactive
CCOC(=O)COc1ccc(Br)cc1/C=C/c1[nH]c(=O)[nH]c(=O)c1[N+](=O)[O-] | inconclusive: 35.5 µM [activator, single point]
CC(/C=C/c1ccco1)=N/NC(=O)C1COc2ccccc2O1 (stereo not given) | inconclusive: 31.6 µM [activator, single point]
CCOc1ccc(C(C)NC(=S)NC2CCCCC2)cc1 (stereo not given) | inactive
Clc1ccc(-n2cccc2CN2CCc3c([nH]c4ccccc34)C2c2ccccn2)nc1 (stereo not given) | inactive

Structure (SMILES) | Potency
CCN1CCCC1Cn1cnc2c([nH]c3cc(OC)ccc32)c1=O (stereo not given) | inconclusive: 20 µM [activator, single point]
CCOc1ccc(/C=C/C(=O)Nc2ccc3nc(N(CC)CC)cc(C)c3c2)cc1OC | inconclusive: 35.5 µM [activator, single point]
CC(C)Cn1c(N)c(C(=O)COC(=O)c2cc(C(F)(F)F)nc3c(C(F)(F)F)cccc23)c(=O)n(C)c1=O | inconclusive: 35.5 µM [activator, single point]
COC(=O)c1sccc1S(=O)(=O)N(CC(=O)Nc1cccc(C)c1C)c1ccc(C)c(C)c1 | inactive
CC[n+]1c(/C=C/Nc2ccccc2)oc2ccc(OC)cc21 | active: 12.6 µM
CCOC(=O)c1c(NC(=O)COC(=O)c2ccncc2)sc(C)c1C | inactive
COc1ccc(-c2nc(C#N)c(NCCCN3CCOCC3)o2)cc1 | inactive
Cc1ccc(S(=O)(=O)Nc2ccc3nc(-c4cccc(Cl)c4)oc3c2)cc1 | inconclusive: 35.5 µM [activator, single point]
O=C(CCCCCn1c(=O)c2sccc2n(Cc2ccccc2Cl)c1=O)NCc1ccc2c(c1)OCO2 | inconclusive: 35.5 µM [activator, single point]
COc1ccc(CNC(=O)c2ccccc2C(=O)O)cc1 | inactive
CN1Cc2c(N3CCOCC3)nc3sc(C(=O)c4ccccc4)c(N)c3c2CC1(C)C | inactive
CCOC(=O)C1CCN(C(=O)c2c(C)oc3c2C(=O)c2ccccc2C3=O)CC1 | inactive
CCOc1cc(/C=C(/C#N)C(=O)Nc2ccc(O)cc2)cc(Br)c1O | inconclusive: 6.31 µM [activator, single point]
O=C(c1ccco1)N1CCn2cccc2C1c1ccccc1 (stereo not given) | inactive
CCOC(=O)C1=C(c2ccccc2)NC(=O)NC1c1ccc(N(C)C)cc1 (stereo not given) | inconclusive: 35.5 µM [activator, single point]
Cc1ccc(-c2cc(-c3ccccc3)c(C#N)c(N)n2)o1 | inconclusive: 31.6 µM [activator, single point]
CCC(=O)N(Cc1cc(=O)[nH]c2ccccc12)c1ccccc1 | inactive
CCc1ccc2oc(-c3cc(NC(=O)c4cc(OC)c(OC)c(OC)c4)ccc3O)nc2c1 | inconclusive: 31.6 µM [activator, single point]
C/C(=N\NC(=O)c1cc(-c2cccs2)nc2ccccc12)c1ccccn1 | inconclusive: 25.1 µM [activator, single point]
COC(=O)CSc1nc2cc(OC)ccc2cc1C#N | inconclusive: 31.6 µM [activator, single point]
COc1ccc(N2C(=O)C3CC(C)=C(C)CC3C2=O)c(OC)c1 (stereo not given) | inactive
COc1cc2cc(CN(Cc3cccnc3)C(=O)NCc3ccccc3)c(=O)[nH]c2cc1OC | inactive
Cc1ccc(C)c(SCC(=O)OC/C(O)=C(\C#N)c2nc3ccccc3[nH]2)c1 | inconclusive: 17.8 µM [activator, single point]
COc1cccc(C2CC(c3ccccc3)=NN2S(=O)(=O)c2ccc(C)cc2)c1OC (stereo not given) | inconclusive: 35.5 µM [activator, single point]

Structure (SMILES) | Potency
NC(=O)C(c1ncc(C(F)(F)F)cc1Cl)c1c(Cl)cccc1Cl (stereo not given) | inconclusive: 15.8 µM [activator, single point]
Cc1ccc(N2C(=O)c3cccc4c(N)ccc(c34)C2=O)c2cccnc12 | active: 3.98 µM
CS(=O)(=O)CCNCc1nc(-c2ccc3ncnc(Nc4ccc(OCc5cccc(F)c5)c(Cl)c4)c3c2)cs1 | inconclusive: 35.5 µM [activator, single point]
Cc1cc(C)nc(SCC(=O)NC2=NN=C(c3ccc(Br)cc3)CS2)n1 | inconclusive: 35.5 µM [activator, single point]
COc1ccccc1/C=C/C(=O)/C=C/c1ccccc1O | inconclusive: 5.62 µM [activator, single point]
Cc1ccc(Cc2c(C)nc3nc(SCC(=O)NCCC(C)C)nn3c2C)cc1 | inconclusive: 35.5 µM [activator, single point]
COc1ccc(Cc2nc3ccccc3n2Cc2ccccc2C)cc1 | inactive
COCCN(C(=S)Nc1ccc(OC)c(Cl)c1)C1CCN(C(C)C)CC1 | inactive
Cn1c(-c2c(N)n(CCc3ccccc3)c3nc4ccccc4nc23)nc2ccccc21 | inconclusive: 14.1 µM [activator, single point]
CC(C)(C)c1ccc(OCc2ccc(C(=O)NCc3cccnc3)o2)cc1 | inactive
Cc1cccc(Oc2cc([N+](=O)[O-])cc3c2C(=O)Nc2ccccc2O3)c1 | inconclusive: 31.6 µM [activator, single point]
Cc1ccc(C)c(-n2cc(CN3CCCN(C=O)CC3)c(-c3ccccc3)n2)c1 | inconclusive: 15.8 µM [activator, single point]
CCc1cccc(NC(=O)CSc2ncc3c(n2)-c2cc(Cl)ccc2N(C)S3(=O)=O)c1 | inconclusive: 35.5 µM [activator, single point]
COc1ccc(NC(=O)CCS(=O)(=O)c2nc(-c3ccc4c(c3)OCO4)cc(C(F)(F)F)n2)cc1OC | inconclusive: 35.5 µM [activator, single point]
CCCOc1ccc(/C=C/C(=O)Nc2sc(C)c(C)c2C(=O)OCC)cc1OC | inactive
CC(C)(C)c1ccc(OCc2ccc(C(=O)N/N=C/c3ccc(O)c(O)c3)cc2)cc1 | inconclusive: 4.47 µM [activator, single point]
CCOC(=O)c1cnn(-c2ccccc2)c1-n1cccc1C(=O)C(=O)Nc1ccc(OC)cc1 | inconclusive: 6.31 µM [activator, single point]
CCOc1ccc(NC(=O)/C=C/c2ccccc2)c([N+](=O)[O-])c1 | inconclusive: 28.2 µM [activator, single point]
Cc1ccc(/C=N/NC(=O)c2nnn(-c3nonc3N)c2CSc2ccc(Cl)cc2)cc1 | inconclusive: 35.5 µM [activator, single point]
NS(=O)(=O)c1ccc(CNC(=O)c2cc(-c3cccs3)nc3ccccc23)cc1 | inconclusive: 35.5 µM [activator, single point]
COCCn1c(C)cc(O)c(C(c2ccccc2)N2CCC(C)CC2)c1=O (stereo not given) | inactive
Cc1ccccc1N(Cc1ccccc1F)S(C)(=O)=O | inconclusive: 2.82 µM [activator, single point]
